Measured values published in PubChem BioAssay AID504832 (National Center for Advancing Translational Sciences (NCATS), 2011).
Out of some 310,000 compounds screened, about 18,000 (5.8%) were called active. Inconclusive means that the source gave no clear call. Such entries were picked first, then a sample of the others. The call rests on the fitted dose curve; in most records, active means well fitted inhibition curve with a large enough effect; inconclusive means small, poorly fitted or top-dose-only effect, or another doubt; inactive means no such curve, though single readings can be large or run the other way. No potency is given beside an inconclusive call; the fits are too rough.

experiment: Primary qHTS for delayed death inhibitors of the malarial parasite plastid, 48 hour incubation; details: P. falciparum luciferase growth in erythrocytes; series mostly up to 28.7 µM; activity change, negative = inhibition: at the top concentration
Outline: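 Parasite viability was followed by luminescence of a genomically integrated firefly luciferase. Cultures held 0.1% parasitemia at 2% hematocrit (final), incubated under 5% CO2 at 37 C.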
On the % scale 0 is the no-effect control and ±100 the full control effect; potency means the concentration at half of the fitted maximal effect; tags describe the fitted curve by direction and shape.

Row | Compound | activity change, negative = inhibition | Potency
1 | O=c1cc(-c2ccccc2Cl)oc2c(Br)ccc(O)c12 | inactive: 126% | –
2 | Cn1c(N)c(C(=O)COC(=O)CC2CC3CCC2C3)c(=O)n(C)c1=O (configuration not stated) | – | inconclusive [inhibitor, full curve, poor fit]
3 | Cc1ccc2cc(CN(CC(C)C)C(=O)C3CCCO3)c(=O)[nH]c2c1 (configuration not stated) | – | inconclusive [inhibitor, single point]
4 | Cc1ccc2c(c1)N(CC(=O)c1cccc(Cl)c1)C(=O)C(C)O2 (configuration not stated) | – | inconclusive [inhibitor, single point]
5 | O=C(Nc1ccc(Oc2cccnc2)cc1)C1CCN(Cc2cc(Cl)ccc2O)CC1 | – | active: 1.31 µM
6 | N#C/C=C(/N)c1ccc(Br)cc1 | – | active: 13.1 µM
7 | CC(=O)CSc1nc2ccccc2o1 | inactive: 130% | –
8 | Cc1ccc(C(=O)Nc2cccc(NC(=O)c3cccs3)c2)c(C)c1 | – | inconclusive [inhibitor, partial curve, poor fit]
9 | O=C(N/N=C/c1ccc(-c2ccc(Br)cc2)o1)c1ccc2c(c1)OCO2 | inactive: -21.4% | –
10 | Fc1ccc(NC(=S)NC2CC3CCC(C2)N3Cc2ccco2)cc1 (configuration not stated) | inactive: -3.44% | –
11 | CCCCNCCCOc1cccc(Cl)c1 | – | inconclusive [inhibitor, single point]
12 | CCOC(=O)c1c(CSc2ccccc2)n(C)c2cc(Br)c(OCC(O)CNC(CO)(CO)CO)cc12 (configuration not stated) | – | active: 11.7 µM
13 | Cc1ccc(NC(=O)Cn2cnc3cc([N+](=O)[O-])ccc3c2=O)c(Cl)c1 | – | inconclusive [inhibitor, partial curve, poor fit]
14 | Cc1ccc(S(=O)(=O)N(C)c2ccc(C(=O)NCCc3ccccc3)cc2)cc1 | – | inconclusive [inhibitor, single point]
15 | CC(=O)N1c2ccc(S(=O)(=O)N3CCC(C(=O)Nc4ccccn4)CC3)cc2CC1C (configuration not stated) | – | inconclusive [inhibitor, single point]
16 | C=CCn1c(SCC(=O)NCC2CCCO2)nc2scc(-c3ccccc3)c2c1=O (configuration not stated) | – | inconclusive [inhibitor, partial curve]
17 | COc1cc(/C=C(/C#N)c2nc3ccccc3[nH]2)ccc1OCc1ccc(C(=O)O)o1 | – | inconclusive [inhibitor, partial curve, poor fit]
18 | C=CCn1c(SCCN2C(=O)c3ccccc3C2=O)nc2scc(-c3ccccc3)c2c1=O | – | inconclusive [inhibitor, full curve, poor fit]
19 | Cc1cc(C(=O)COC(=O)c2n[nH]c3ccccc23)c(C)n1C | inactive: 108% | –
20 | CCOC(=O)c1nnc(-c2ccccc2)nc1Oc1ccccc1Cl | – | inconclusive [inhibitor, partial curve]
21 | COc1ccc2c(c1)nc1n2CN(CC2CCCO2)CN1Cc1ccccc1 (configuration not stated) | – | active: 9.28 µM
22 | CCOc1cc(-c2c(C#N)c(N)nc3c2CCc2ccccc2-3)ccc1O | – | inconclusive [inhibitor, partial curve]
23 | CCOC(=O)C1CCN(C(=O)COC(=O)c2ccc(=O)n(Cc3ccccc3)n2)CC1 | inactive: 18.3% | –
24 | COC(=O)c1ccc(CC(=O)c2ccc(O)cc2O)o1 | inactive: -14% | –

Row | Compound | activity change, negative = inhibition | Potency
25 | CCN(CC)S(=O)(=O)c1ccc(/C=C/C(=O)OCC(=O)c2c(N)n(C)c(=O)n(C)c2=O)cc1 | – | inconclusive [inhibitor, single point]
26 | OC/C=C/c1ccccc1 | inactive: -8.82% | –
27 | COCCNc1nc2c(c(=O)n(C)c(=O)n2C)n1Cc1cccc(C(F)(F)F)c1 | – | inconclusive [inhibitor, single point]
28 | Cn1cccc1-c1nc2ccccc2n1Cc1ccccc1 | – | inconclusive [inhibitor, single point]
29 | CC(=O)Nc1ccc2c(c1)ncn2-c1ccc(C)cc1 | – | inconclusive [inhibitor, single point]
30 | COc1ccc(Cl)cc1NC(=O)CN(C)C(=O)c1ccc(N2CCCCCC2)c([N+](=O)[O-])c1 | – | inconclusive [inhibitor, single point]
31 | CCc1cc2cccc(C)c2nc1SCC(=O)c1ccc(NC(C)=O)cc1 | – | inconclusive [inhibitor, single point]
32 | O=c1[nH]c2cc3c(cc2cc1CN(Cc1nnnn1CC1CCCO1)C1CCCCC1)OCO3 (configuration not stated) | – | inconclusive [inhibitor, single point]
33 | CC1=C(C(=O)OC(C)C)C(c2ccccc2Cl)CC(=O)N1 (configuration not stated) | – | inconclusive [inhibitor, partial curve]
34 | O=C(O)c1cc(Sc2ccc(Br)cc2)nc2ccccc12 | – | inconclusive [inhibitor, single point]
35 | CCC1=Nc2cc(C(=O)NCc3ccco3)ccc2Sc2ccc(Cl)cc21 | – | active: 1.47 µM
36 | CC1(C)Cc2c(sc3[nH]c(=S)n(Cc4ccccc4)c(=O)c23)CO1 | inactive: 15% | –
37 | COc1cccc(NC(=O)CN(C)C(=O)c2ccc(-n3cncn3)c([N+](=O)[O-])c2)c1 | – | inconclusive [inhibitor, partial curve, poor fit]
38 | COc1cc(CC(=O)Nc2ccc(Cl)c(C(F)(F)F)c2)cc(OC)c1OC | – | inconclusive [inhibitor, single point]
39 | c1ccc(CNCc2ccc3c(c2)OCO3)nc1 | inactive: 35.6% | –
40 | COc1ccc(CNS(=O)(=O)c2ccc(F)c(C(=O)Nc3ccccc3OC)c2)cc1 | inactive: -5.85% | –
41 | N#Cc1ccccc1NC(=O)C(=O)NCCc1csc(-c2ccc(F)cc2)n1 | inactive: -2.18% | –
42 | COCCN(C(=O)CSc1nncn1-c1ccccc1)c1c(N)n(Cc2ccccc2)c(=O)[nH]c1=O | inactive: -12.8% | –
43 | Nc1c(S(=O)(=O)c2ccccc2)csc1C(=O)O | – | inconclusive [inhibitor, partial curve, poor fit]
44 | Cc1ccccc1C(=O)Nc1ccccc1C(=O)NCc1ccccc1 | – | inconclusive [inhibitor, partial curve]
45 | COc1ccc(CC(=O)Nc2nc(-c3ccc(OC)c(OC)c3)cs2)cc1OC | inactive: -18% | –
46 | Cc1ccc(N(CC(=O)NCc2ccco2)C(=O)CNS(=O)(=O)c2ccccc2)c(C)c1 | – | inconclusive [inhibitor, single point]
47 | COc1ccc(CC(=O)N2CCN=C2SCc2cccc([N+](=O)[O-])c2)cc1 | – | active: 10.4 µM
48 | COc1ccc(-c2csc(N(CCc3ccccc3)C(=O)COc3ccccc3)n2)cc1 | – | inconclusive [inhibitor, full curve, poor fit]

Row | Compound | activity change, negative = inhibition | Potency
49 | COc1ccc(NC(=S)NCc2cccs2)cc1 | inactive: 18.1% | –
50 | Cc1nc2cc(NC(=O)Nc3ccc(Br)cc3)ccc2o1 | inactive: 87.5% | –
51 | Cc1cccc(NC(=O)c2ccc([N+](=O)[O-])o2)c1C | inactive: 15% | –
52 | Nc1c(C(=O)c2ccccc2)sc(Nc2ccccc2)c1S(=O)(=O)c1ccccc1 | – | inconclusive [inhibitor, single point]
53 | CCc1cc(C(=O)NNC(=S)NC2CCCCC2)cs1 | inactive: 153% | –
54 | O=C(CCCN1C(=O)/C(=C/c2cccs2)SC1=S)Nc1ccc(O)c(C(=O)O)c1 | – | inconclusive [inhibitor, partial curve, poor fit]
55 | CNC(=O)c1ccc(CN(C)CC(=O)Nc2ccccc2C(=O)NC2CC2)cc1 | – | inconclusive [inhibitor, single point]
56 | COc1ccccc1N(CC(=O)NC1CCCCC1)C(=O)CCC(=O)Nc1nccs1 | – | inconclusive [inhibitor, single point]
57 | CCOC(=O)N1CC=C2C(C#N)=C(N)C(C#N)(C#N)[C@H](c3ccccc3OCC)[C@H]2C1 | inactive: 5.29% | –
58 | Cc1nc2scc(-c3ccco3)c2c(=O)n1/N=C/N(C)C | inactive: 27.3% | –
59 | Sc1nnc(-c2ccc(Cl)cc2)n1Cc1ccccc1 | – | inconclusive [inhibitor, single point]
60 | Cc1ccc(NC(=S)NCCCN2CCOCC2)cc1 | inactive: -10.5% | –
61 | COc1ccc2[nH]c(C)c(C(=O)CN3CCN(C(=O)c4ccco4)CC3)c2c1 | – | inconclusive [inhibitor, single point]
62 | COc1cccc(-c2sc3ccc(OC)cc3c2-c2ccc(OC)cc2F)c1 | – | inconclusive [inhibitor, partial curve, poor fit]
63 | CC(=O)Nc1ccc(S(=O)(=O)N(Cc2ccco2)CC2CCCO2)cc1 (configuration not stated) | inactive: -27.2% | –
64 | COc1ccc(Cl)cc1CNCCCSc1ncccn1 | – | inconclusive [inhibitor, partial curve, poor fit]
65 | O=C(c1cc(COc2ccc(F)cc2Cl)on1)N1CCCCC1c1cccnc1 (configuration not stated) | – | inconclusive [inhibitor, partial curve]
66 | O=C(CN1C(=O)NC2(CCCC2)C1=O)Nc1ccccc1F | inactive: 11.5% | –
67 | Cc1noc(C)c1COc1cccc(C(=O)NCCc2c[nH]c3ccccc23)c1 | – | inconclusive [inhibitor, single point]
68 | O=C(Cc1ccccc1)Nc1nnc(SCC(=O)NC2CCCC2)s1 | – | inconclusive [inhibitor, partial curve, poor fit]
69 | COc1cc([N+](=O)[O-])ccc1NC(=O)c1cccc(NC(=O)C(C)C)c1 | inactive: 4.37% | –
70 | CCOc1cc(N2CCOCC2)c(OCC)cc1NC(=O)Cc1ccccc1 | – | inconclusive [inhibitor, single point]
71 | FC(F)Oc1ccc(NC(=S)NC23CC4CC(CC(C4)C2)C3)cc1 | – | active: 4.15 µM
72 | Cc1cc(C2=NNC(=NCc3ccccc3)SC2)c(C)n1-c1c(C)n(C)n(-c2ccccc2)c1=O | – | active: 11.7 µM
